This passage reports self-cleavage results from the RNAGym collection of RNA variant scans (doi:10.1093/nar/gkz1192).

The source gives no read counts; variants with many changes may rest on few reads.

Sequences and labels used below:
B1: CPEB3 Ribozyme (parent)
chain: UAACAGGGGGCCACAGCAGAAGCGUUCACGUCGCAGCCCCUGUCAGAUUCUGGUGAAUCUGCGAAUUCUGCUGUAUAUCUC

Variants of B1 are the subject of the series. Put plainly: self-cleavage, relative activity (ratio to wild type); higher = more cleavage; in vitro, sequencing. The procedure, abridged:
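Libraries of CPEB3 self-cleaving ribozyme mutants came from rounds of error-prone PCR and carried barcodes, which DNA sequencing matched to variants. In vitro transcription used T7 RNA polymerase at 37°C for 5 hours, with a further 15 min in DNase I before EDTA stopped the reaction; the ribozymes cleaved during both steps. The RNA was reverse transcribed with template switching and sequenced on Illumina. Relative activity is the cleaved/total read fraction of a variant divided by that of the unmutated ribozyme, averaged over three batches with at least 5 reads.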
For the variant G9U G10A A21U G42A A47G U67A, the self-cleavage was found to be 0.04.
For the variant G9C U25A U72A, the self-cleavage came to 0.17.
For G9U G24U U60C the value was 0.11; for G9U C11U U51C U60C A65G A77U, 0.04.
For G9C G22U G46C A47G G63U U72A the value was 0.12; for G9U A15G U26C A56G A65G U66C U78A, 0.04; for G9U A56U U80C, 0.18.
Regarding G9U C12A C44A U49C A56G U60A, the self-cleavage worked out at 0.06.
Turning to G9U C12U A13G U26C A35G C39U A65U, the self-cleavage was 0.04.
In the case of G9U A15G A45G G52A it was 0.05.
As for G9C U26C U54C A56G U67A, the self-cleavage was found to be 0.05.
For the variant G9U G16A U43G U49A U51C, the self-cleavage turned out to be 0.04.
For G9U A18G A65U the value was 0.19; for G9U A15G U25C A28U U48C, 0.22.
Take G9U A20G A45G U54A U80A: the self-cleavage came to 0.18.
In the case of G9U A21C G30A A35U U41C U43C it was 0.04; in that of G9C U25A C40U U48A U51G, 0.23; in that of G9C G22U U31C A45U U78A, 0.06.
For the variant G9U A18G A56G U78C, the self-cleavage worked out at 0.07.
In the case of G9U C11U U51A U69C, the self-cleavage was 0.11.
In the case of G9U A28G G36C, the self-cleavage was determined as 0.13.
For G9U A13G C17A U25C U54A U69C A75G, the self-cleavage is 0.06.
For the variant G9U A21G U31C A64U U74C, the self-cleavage was 0.04.
For the variant G9U A20U U26C, the self-cleavage is 0.19.
Consider G9U G10A C12U A35G A45G C50A U58A, for which the self-cleavage was 0.16.
Regarding G9U G36A U48C A57G, the self-cleavage was 0.1.
In the case of G9U C37G G63U U66A it was 0.15.
As to G9U C59U U76C U78C, the self-cleavage stood at 0.08.
As to G9U A65G U74C U78C, the self-cleavage was 0.13.
In the case of G9U A13U A20G it was 0.48; in that of G9U A45G A56G, 0.33; in that of G9U G30A U41C C62A U69C, 0.07.
In the case of G9U A13U U26A, the self-cleavage came out at 0.16.
Regarding G9U G30A C44A U66A, the self-cleavage worked out at 0.03.
In the case of G9C U60C U67C it was 0.11.
For G9U A21G U31C G36C U51C the value was 0.03; for G9U G42A U49C, 0.11.
Consider G9U A28G A35G A56G U66C, for which the self-cleavage is 0.11.
In the case of G9U A35G U51C it was 0.24; in that of G9U A20U A56G, 0.06.
For G9U A18U A45G, the self-cleavage is 0.44.
For G9U A20G G24U A75U U78C, the self-cleavage is 0.21.
For G9C U51C G53A U67C the value was 0.05.
Take G9U A13G A47U G52C G53A: the self-cleavage is 0.07.
G9U A21G A35G U51A A57G U66C U67C: the self-cleavage came out at 0.05.
For G9U A15U U48C U51C A56U U67C, the self-cleavage stood at 0.06.
For G9U C38U U78C the value was 0.2; for G9U A28G U51A U67A A75G, 0.12.
For G9U G10A U31C A56U A57G the value was 0; for G9C U54C U67A, 0.14; for G9C U54C A64G C71U, 0.07.
For G9C U41A G46A the value was 0.19; for G9U A20G U54A U80A, 0.34.
Consider G9U A28G A35U U60C U66C, for which the self-cleavage was determined as 0.05.
In the case of G9U G36A U60C it was 0.31.
For G9U A28G G63U the value was 0.16; for G9U C11U C27G U60C U72G, 0.04.
Regarding G9U A21G A28G G30A A35G A64G, the self-cleavage was determined as 0.05.
As to G9U A21G G30U, the self-cleavage is 0.08.
In the case of G9U C37U U41C A45U U49C A56U it was 0.04; in that of G9U A57G U69A, 0.05; in that of G9U A15G U26A U74C, 0.31.
In the case of G9U C11U A18G it was 0.35; in that of G9U C34G A45G C68G, 0.04.
For G9U A18G U60C U67C the value was 0.04; for G9U A18U U25C U26C A56G, 0.05; for G9U A35U U48C U67C A75G, 0.09.
G9U A35G A45U A57G U60C U67C: the self-cleavage was determined as 0.05.
G9U A21G U31C A45G U60C: the self-cleavage came out at 0.07.
As for G9U C29U U66C U72C, the self-cleavage came to 0.06.
Turning to G9U A20G U25C U54C A64G U69G, the self-cleavage is 0.06.
As for G9C G30U U76C, the self-cleavage was 0.08.
For G9U G16A A35G A56G U72C the value was 0.27.
In the case of G9U A20G A47G U51A U54G it was 0.04; in that of G9U A18U U31A A45U U58C U78C, 0.12.
For G9U G42A U67C U69A the value was 0.04; for G9U A28U A47C U51C U67A U69A, 0.04; for G9U C11G G61A, 0.32.
Take G9U A28G C32U U41C A56G: the self-cleavage was determined as 0.21.
For G9U A20U U41C G52A U67A U76A the value was 0.12.
On to G9U C40U U51C G52A U67C U69C U72G, for which the self-cleavage amounted to 0.03.
For G9U A45G A57G the value was 0.07; for G9U A13G A64G, 0.4.
